Among the targets are GST-(P1-401) (human) (UniProt P16298); GST-(P355-525) (human) (UniProt P16298); GST-(P81-401) (human) (UniProt P16298).
What all share (assay): pull-down; GST fusion protein on glutathione beads as bait, incubated with lysate of Cos7 or HEK293T cells expressing the ECFP or EYFP fusion protein, 2-4 h at 4 °C; Western blot with EGFP antibody; only the target purified
Test [1] addresses GST-PPP3CB fusion protein (human) (UniProt P16298).

No constants are given. Whether binding was seen depends on the method and setting. Binding seen in cells or lysates may run through a third protein. Some entries that bind do so weakly or less than the wild type. Sequences can lack the tags named with a protein.

B1: ATOH8-ECFP fusion protein (protein, UniProt Q96SQ7-1 1-321)
chain: MKHIPVLEDGPWKTVCVKELNGLKKLKRKGKEPARRANGYKTFRLDLEAPEPRAVATNGLRDRTHRLQPVPVPVPVPVPVAPAVPPRGGTDTAGERGGSRAPEVSDARKRCFALGAVGPGLPTPPPPPPPAPQSQAPGGPEAQPFREPGLRPRILLCAPPARPAPSAPPAPPAPPESTVRPAPPTRPGESSYSSISHVIYNNHQDSSASPRKRPGEATAASSEIKALQQTRRLLANARERTRVHTISAAFEALRKQVPCYSYGQKLSKLAILRIACNYILSLARLADLDYSADHSNLSFSECVQRCTRTLQAEGRAKKRKE
Turning to B1, the results for the binding entry with GST-(P1-401) (human) and with GST-(P355-525) (human) were “binds” and “no binding”, respectively.

B2: (A1-55)-ECFP (domain or fragment, UniProt Q96SQ7-1 1-55)
chain: MKHIPVLEDGPWKTVCVKELNGLKKLKRKGKEPARRANGYKTFRLDLEAPEPRAV
Take B2: the binding entry with GST-(P81-401) (human) is listed as “binds”.

B3: (A90-190)-ECFP (domain or fragment, UniProt Q96SQ7-1 90-190)
chain: TDTAGERGGSRAPEVSDARKRCFALGAVGPGLPTPPPPPPPAPQSQAPGGPEAQPFREPGLRPRILLCAPPARPAPSAPPAPPAPPESTVRPAPPTRPGES
For the molecule B3, the binding entry with GST-(P81-401) (human) is “no binding”.

B4: (A225-275)-ECFP (domain or fragment, UniProt Q96SQ7-1 225-275)
chain: KALQQTRRLLANARERTRVHTISAAFEALRKQVPCYSYGQKLSKLAILRIA
Consider B4, for which, in the test with GST-(P81-401) (human), the binding result is listed as “binds”.
In the case of ERTRVHTISAAFEALRKQVPCYSYGQKLSKLAILRIA (domain or fragment, UniProt Q96SQ7-1 239-275) [(A239-275)-ECFP], the binding result with GST-(P81-401) (human) is listed as “no binding”.

B5: (A1-190)-ECFP (domain or fragment, UniProt Q96SQ7-1 1-190)
chain: MKHIPVLEDGPWKTVCVKELNGLKKLKRKGKEPARRANGYKTFRLDLEAPEPRAVATNGLRDRTHRLQPVPVPVPVPVPVAPAVPPRGGTDTAGERGGSRAPEVSDARKRCFALGAVGPGLPTPPPPPPPAPQSQAPGGPEAQPFREPGLRPRILLCAPPARPAPSAPPAPPAPPESTVRPAPPTRPGES
As to B5, the binding entry in the test with GST-(P1-401) (human) and with GST-(P81-401) (human) was “binds” each time.

B6: (A1-230)-ECFP (domain or fragment, UniProt Q96SQ7-1 1-230)
chain: MKHIPVLEDGPWKTVCVKELNGLKKLKRKGKEPARRANGYKTFRLDLEAPEPRAVATNGLRDRTHRLQPVPVPVPVPVPVAPAVPPRGGTDTAGERGGSRAPEVSDARKRCFALGAVGPGLPTPPPPPPPAPQSQAPGGPEAQPFREPGLRPRILLCAPPARPAPSAPPAPPAPPESTVRPAPPTRPGESSYSSISHVIYNNHQDSSASPRKRPGEATAASSEIKALQQT
As to B6, the results for the binding entry (in test [1]; in the test with GST-(P1-401) (human); with GST-(P355-525) (human)) were “binds”, “binds” and “no binding”, respectively.

B7: (A1-92)-ECFP (domain or fragment, UniProt Q96SQ7-1 1-92)
chain: MKHIPVLEDGPWKTVCVKELNGLKKLKRKGKEPARRANGYKTFRLDLEAPEPRAVATNGLRDRTHRLQPVPVPVPVPVPVAPAVPPRGGTDT
For B7, in the test with GST-(P81-401) (human), the binding result is recorded as “binds”.

B8: (A188-321)-ECFP (domain or fragment, UniProt Q96SQ7-1 188-321)
chain: GESSYSSISHVIYNNHQDSSASPRKRPGEATAASSEIKALQQTRRLLANARERTRVHTISAAFEALRKQVPCYSYGQKLSKLAILRIACNYILSLARLADLDYSADHSNLSFSECVQRCTRTLQAEGRAKKRKE
B8: the results for the binding result (in test [1]; with GST-(P1-401) (human); with GST-(P355-525) (human)) were “binds”, “binds” and “no binding”, respectively.

B9: (A225-321)-ECFP (domain or fragment, UniProt Q96SQ7-1 225-321)
chain: KALQQTRRLLANARERTRVHTISAAFEALRKQVPCYSYGQKLSKLAILRIACNYILSLARLADLDYSADHSNLSFSECVQRCTRTLQAEGRAKKRKE
B9: the binding result in the test with GST-(P1-401) (human) and with GST-(P81-401) (human) was “binds” each time.

Source of the values: publication PMC4710663.
